# Test results reported in paper PMC4336329 (PLoS ONE, 2015).
# Hit rate of the full screen: of about 310,000 compounds, about 2,200 (0.71%) showed an effect of 50% or more. The effect is printed as a negative number. Some of the results follow.
# Target: human ether-à-go-go-related gene (hERG) potassium channel (human, UniProt Q12809)
# Assay: primary screen, population patch clamp on CHO cells stably expressing hERG
# Sequence of human ether-à-go-go-related gene (hERG) potassium channel (Q12809 whole entry, looked up): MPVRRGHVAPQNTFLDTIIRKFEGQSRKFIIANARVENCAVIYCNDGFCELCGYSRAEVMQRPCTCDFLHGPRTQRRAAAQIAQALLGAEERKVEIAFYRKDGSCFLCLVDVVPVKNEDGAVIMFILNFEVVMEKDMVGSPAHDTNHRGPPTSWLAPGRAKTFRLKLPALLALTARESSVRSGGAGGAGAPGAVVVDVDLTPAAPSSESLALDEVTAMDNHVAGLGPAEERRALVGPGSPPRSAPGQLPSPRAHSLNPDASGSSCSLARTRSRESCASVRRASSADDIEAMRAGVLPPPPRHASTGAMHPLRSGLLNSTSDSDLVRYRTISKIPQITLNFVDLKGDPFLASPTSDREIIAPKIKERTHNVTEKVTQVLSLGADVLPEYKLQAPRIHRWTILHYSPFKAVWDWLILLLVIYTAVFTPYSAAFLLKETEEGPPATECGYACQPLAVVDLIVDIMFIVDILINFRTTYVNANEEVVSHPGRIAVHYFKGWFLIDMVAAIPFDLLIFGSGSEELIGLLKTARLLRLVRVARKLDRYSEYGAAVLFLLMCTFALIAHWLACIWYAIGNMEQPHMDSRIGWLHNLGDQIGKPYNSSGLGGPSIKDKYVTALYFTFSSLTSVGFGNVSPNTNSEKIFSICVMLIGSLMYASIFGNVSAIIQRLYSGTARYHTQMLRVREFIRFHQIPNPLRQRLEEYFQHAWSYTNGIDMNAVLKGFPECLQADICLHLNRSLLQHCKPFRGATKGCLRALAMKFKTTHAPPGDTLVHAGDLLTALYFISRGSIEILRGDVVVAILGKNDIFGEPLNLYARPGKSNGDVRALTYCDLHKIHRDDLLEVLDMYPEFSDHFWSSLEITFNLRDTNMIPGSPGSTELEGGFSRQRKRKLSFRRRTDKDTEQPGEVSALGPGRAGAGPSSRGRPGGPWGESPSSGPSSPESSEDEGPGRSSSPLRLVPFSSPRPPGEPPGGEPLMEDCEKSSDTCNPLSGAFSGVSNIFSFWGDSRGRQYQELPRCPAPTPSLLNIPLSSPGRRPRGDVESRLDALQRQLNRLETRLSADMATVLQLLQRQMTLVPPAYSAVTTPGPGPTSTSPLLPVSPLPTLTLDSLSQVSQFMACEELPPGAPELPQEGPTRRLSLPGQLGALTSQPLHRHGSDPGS
row,Structure (SMILES),"hERG current change (%, negative = inhibition) at 1uM [%]"
1,CCC(C)(C)C1CCc2[nH]nc(C(=O)NCC3CC3)c2C1 (centres unmarked),12.1
2,O=C(CSc1nc2ccccc2s1)NCCCN1CCOCC1,13.7
3,CC(C)(C)C(=O)Nc1cccc(C(=O)c2cccc(NC(=O)C(C)(C)C)c2)c1,1.15
4,CCC(C)NC(=O)c1cccc(C)c1 (centres unmarked),-0.28
5,CC(C)Sc1nnc(NC(=O)c2ccc3c(c2)OCO3)s1,4.35
6,CCOC(=O)c1c(NC(=O)CSc2ncccn2)sc2c1CC(C)(C)NC2(C)C,-25.6
7,Cc1ccc(S(=O)(=O)CC(=O)Nc2nc(-c3ccccc3)cs2)cc1,-1.87
8,CC(=O)Nc1c(-c2ccc(F)cc2)nc2ccccn12,2.43
9,OCC[C@H]1C[C@@H](O)[C@H](O)[C@]2(Cc3ccccc3O2)O1,0.687
10,Cl.Nc1nc2ccccc2n1C(=O)c1cccs1,17.1
11,CCn1ncc(Cl)c1C(=O)NC(C)c1ccccc1 (centres unmarked),-7.45
12,COC(=O)C/C=C/[C@@H](C)[C@@H](/C=N/OCC[C@@H]1C=C[C@H](OC(C)=O)[C@@H](COC(C)=O)O1)NS(=O)(=O)c1ccc(C)cc1,7.04
13,O=C(OC1CCOC1=O)c1cc(-c2ccccc2)nc2ccccc12 (centres unmarked),1.09
14,CC(=O)NC(=S)Nc1ccc2oc(=O)ccc2c1,14.6
15,CSCCC(NC(=O)COc1ccccc1)C(=O)N1CCCCCC1 (centres unmarked),11.7
16,CN1CCN(C(=O)C2CCCCC2C(=O)O)CC1 (centres unmarked),6.55
17,Cc1cccc2sc(NNC(=O)c3ccc(S(=O)(=O)N4CCCC(C)C4)cc3)nc12 (centres unmarked),16.2
18,O=C(CN1C(=O)NC2(CCCC2)C1=O)OCc1ccccc1F,11.1
19,CN(C(=O)COC(=O)c1c2c(nc3ccccc13)CCCC2)c1c(N)n(Cc2ccccc2)c(=O)[nH]c1=O,7.37

row,Structure (SMILES),"hERG current change (%, negative = inhibition) at 1uM [%]"
1,COc1ccccc1/C=C(\NC(=O)c1ccc(OC)c(OC)c1)C(=O)Nc1ccc([N+](=O)[O-])cc1,16.7
2,CCN(CC)c1ccc(/C=C2\C(=O)c3ccc(C(=O)O)cc3C2=O)cc1,15
3,Cc1ccc(OCC(=O)N(Cc2cccs2)C2CCS(=O)(=O)C2)cc1 (centres unmarked),13.3
4,COc1cccc(N2C(=NC(=O)C3CCCCC3)SC3CS(=O)(=O)CC32)c1 (centres unmarked),15.3
5,Cc1c(N/C(=N/S(=O)(=O)c2ccc(Cl)cc2)c2ccccc2)c(=O)n(-c2ccccc2)n1C,3.8
6,COc1cccc(-n2c(SCC(=O)c3c[nH]c4ccccc34)nc3ccccc3c2=O)c1,17
7,Cc1ccc(NC(=O)c2c(C)noc2C)cc1,5.05
8,C/C(=N\Nc1ccc([N+](=O)[O-])cc1)c1ccc(N)cc1,3.67
9,CCc1ccc(N2C(=O)CN(Cc3sccc3C)C2=S)cc1,-6.96
10,O=C(COC(=O)C1(c2ccccc2F)CCCC1)N1CCc2ccccc21,7.91
11,c1ccc(-c2csc3ncn4cnnc4c23)cc1,1.17
12,CSc1ccc(/C=C/C(=O)N2CCCN(C)CC2)cc1.Cl,5.96
13,Cc1cccc(C)c1OCC(=O)OCC(=O)Nc1ccc(Cl)cn1,14.8
14,COc1ccc(NC(=O)CSc2[nH]c(=O)cc(C)c2C#N)cc1OC,4.64
15,CN1CC(=O)N(CC(=O)N2N=C(c3ccc(Cl)cc3)CC2c2ccco2)C1=O (centres unmarked),6.28
16,O=C(CCN1C(=O)C2C3C=CC(C3)C2C1=O)N1CCCCC1 (centres unmarked),-7.6
17,CCN(CC(=O)Nc1ccc(NC(C)=O)cc1)C(=O)c1cc(CN2C(=O)c3ccccc3C2=O)ccc1OC,9.34
18,COc1cc(C(=O)Nc2cc3c4c(c2)CC(=O)N4CCC3)cc(OC)c1OC,3.01
19,COc1ccc(C2NC(=O)c3ccccc3O2)cc1 (centres unmarked),-1.51

row,Structure (SMILES),"hERG current change (%, negative = inhibition) at 1uM [%]"
1,CC(=O)c1cccc(NC(=O)N2CCCC2C(=O)Nc2ccc3c(c2)OCO3)c1 (centres unmarked),10.6
2,Cc1nc2ccc(NC(=O)CCS(=O)(=O)c3ccc(Cl)cc3)cc2s1,0.701
3,COc1ccc(CC(=O)Nc2cccc(-c3ccc4nnc(C)n4n3)c2)cc1OC,9.37
4,CN1C(=O)N(C)C2C1N(C)S(=O)(=O)N2C (centres unmarked),16.7
5,COc1ccccc1C(=O)N/N=C1/NC(=O)CC(C(=O)Nc2ccccc2)S1 (centres unmarked),12.9
6,O=C(c1cccc(Br)c1)c1conc1C(=O)c1ccco1,6.8
7,Cc1cc(C)n2nc(NCc3cccc(Br)c3)nc2n1,-32.1
8,O=C(c1ccccc1)c1cn[nH]c1-c1ccccc1O,4.86
9,COc1ccc(S(=O)(=O)N2CCN(Cc3cccc([N+](=O)[O-])c3)CC2)cc1,2.62
10,COCCCNC(=O)CCn1c(=O)c2ccccc2n(CC(=O)Nc2cc(Cl)ccc2C)c1=O,2.79
11,NC(=O)/C(=C\c1ccccc1)NC(=O)c1ccc(NC(=O)c2ccccc2)cc1,12.6
12,CNC(=S)Nc1ccc([N+](=O)[O-])cc1C,16.4
13,CCN(CC(=O)Nc1c(F)cccc1F)C(=O)c1ccccn1,9.03
14,Cc1cccc(Oc2ccc(N)cc2)c1,8.48
15,Cc1ccc(C)c(CN2C(=O)COc3ccc(C(=O)c4ccccc4C(=O)O)cc32)c1,13.8
16,O=C(Nc1ccccc1-c1nnn(CC(=O)N2CCc3ccccc3C2)n1)C1CCC1,-14
17,COc1ccc(N2CCN(C3CCCCC3NS(=O)(=O)c3ccc(Cl)cc3)CC2)cc1 (centres unmarked),4.01
18,C/C(=N\NC(=O)CCC(=O)N/N=C(\C)c1ccc(C)o1)c1ccc(C)o1,10.5
